# Experimental data from PubChem BioAssay AID2147 (National Center for Advancing Translational Sciences (NCATS), 2009).
# Screen size: about 230,000 compounds; about 3,600 (1.6%) were called active. Inconclusive means that the source gave no clear call. Such entries were picked first, then a sample of the others. Calls come from the whole dose curve; as a rule, active = well fitted inhibition curve with a large enough effect (not every such curve was filed as active); inconclusive = small, poorly fitted or top-dose-only effect, or another doubt; inactive = no such curve, though single readings can be large or run the other way. Where the call is inconclusive, the potency comes from a doubtful curve fit.
# Biological target: Lysine-specific demethylase 4E (Homo sapiens) (UniProt B2RXH2)
# Sequence of UniProt B2RXH2 (B2RXH2 whole entry, looked up, the tested form may be a part): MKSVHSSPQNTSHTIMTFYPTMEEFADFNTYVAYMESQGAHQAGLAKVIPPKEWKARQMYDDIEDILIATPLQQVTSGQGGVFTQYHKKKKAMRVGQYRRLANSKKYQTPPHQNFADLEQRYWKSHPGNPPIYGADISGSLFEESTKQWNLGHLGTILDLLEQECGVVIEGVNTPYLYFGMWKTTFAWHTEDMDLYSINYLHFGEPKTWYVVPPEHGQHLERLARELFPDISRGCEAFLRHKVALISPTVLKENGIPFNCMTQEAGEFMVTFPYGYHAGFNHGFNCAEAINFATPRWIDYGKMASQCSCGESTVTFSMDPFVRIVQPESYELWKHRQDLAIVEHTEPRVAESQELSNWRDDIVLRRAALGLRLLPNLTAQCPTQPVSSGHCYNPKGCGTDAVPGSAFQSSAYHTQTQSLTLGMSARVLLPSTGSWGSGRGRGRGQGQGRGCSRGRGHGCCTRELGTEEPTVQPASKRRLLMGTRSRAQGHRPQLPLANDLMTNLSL
# Assay: qHTS Assay for Inhibitors of Human Jumonji Domain Containing 2E (JMJD2E)
# Settings: JMJD2E catalytic domain, FDH-coupled NADH fluorescence (FDH is formaldehyde dehydrogenase); series mostly up to 57.1 µM; activity change, negative = inhibition: at the top concentration
# Note: nearly all actives have a fitted effect of over 50% in size.
# Potency is the fitted concentration of half-maximal effect; tags give direction and shape of the fitted curve.
# 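Throughout, for activity change, negative = inhibition: 0% = wells with enzyme and -100% = buffer wells without enzyme.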
SMILES,Potency,"activity change, negative = inhibition"
CCC(=O)Nc1ccc2c(c1)nc(CN1CCCCC1)n2C,"inconclusive: 28.2 µM [inhibitor, partial curve]",
CCOC(=O)C1=C(C)NC(C)=C(C(=O)OCC)C1c1cn(-c2ccccc2)nc1-c1ccco1,"inconclusive: 12.6 µM [inhibitor, partial curve]",
Cc1ccc(-c2nn(-c3ccccc3)cc2/C=C/C(=O)O)o1,"inconclusive: 25.1 µM [inhibitor, partial curve]",
CN(C)CCCNc1cc(C(C)(C)C)nc2c(-c3ccccc3)cnn12,"inconclusive: 25.1 µM [inhibitor, partial curve]",
C=C(C)C(=O)Nc1cccc(C2=NOC3(C2)C[C@@H](C(N)=O)N(C(=O)/C=C/C=C/C)C3)c1 (some centres not stated),,inactive: -14.5%
COc1cccc(-n2c(=O)c3cc(OC)c(OC)cc3n(CC(=O)Nc3cc(C)[nH]n3)c2=O)c1,"inconclusive: 31.6 µM [inhibitor, partial curve]",
c1cn2c(NC3CCCC3)c(-c3ccc(N4CCOCC4)cc3)nc2cn1,"inconclusive: 35.5 µM [inhibitor, single point]",
O=C(O)COc1ccccc1/C=C1\SC(=Nc2ccc(F)cc2)N(c2ccc(F)cc2)C1=O,,inactive: 4.84%
CC1(CC(=O)N/N=C/c2cc3c(cc2Br)OCO3)OCCO1,"inconclusive: 39.8 µM [inhibitor, single point]",
COc1ccccc1NS(=O)(=O)c1ccc(O)c(C(N)=O)c1,"inconclusive: 28.2 µM [inhibitor, partial curve]",
NC(=O)c1sc2nccc(Nc3ccccc3)c2c1N,"inconclusive: 31.6 µM [inhibitor, partial curve]",
CCn1nc(NC(=O)c2ccccn2)c2cc3cc(C)ccc3nc21,"inconclusive: 31.6 µM [inhibitor, partial curve]",
Cc1nc(N)sc1C(=O)N/N=C/c1c[nH]c2ccccc12,"inconclusive: 28.2 µM [inhibitor, single point]",
COc1ccc(C2=NN(C(=O)CN3CCCC3)C(c3ccc(OC)cc3)C2)cc1 (configuration not stated),"inconclusive: 28.2 µM [inhibitor, single point]",
S=c1[nH]nc(COc2ccc3c(c2)OCO3)n1-c1ccccc1,"inconclusive: 39.8 µM [inhibitor, single point]",
Cc1onc(-c2ccccc2)c1C(=O)Nc1nc2c(s1)CCCC2,"inconclusive: 39.8 µM [inhibitor, single point]",
Cc1nn(-c2cccc(C(F)(F)F)c2)c(Cl)c1/C=N/Nc1cccc(C(=O)O)c1,"inconclusive: 39.8 µM [inhibitor, single point]",
